In PubChem BioAssay AID2060340 (Molecular Pharmacology Branch, DTP, NCI, 2025) one finds viability, T/C and IC50 data, which are given here for three compounds.

For the assay, the system named is 349418-098-R-PDC spheroids, viability, % test/control. The assay can be described thus: Anticancer human tumor 349418-098-R-PDC patient-derived lung adenocarcinoma cell line growth inhibition [IpAb]. The settings on record: spheroids with HUVEC and MSC; for IC50: compound alone. The source says:
Combinatorial screen of targeted agents with ipatasertib and abemaciclib in multi-cell type tumor spheroids
A high-throughput screen of multi-cell type tumor spheroids was designed to identify active combinations of targeted small molecules and ipatasertib or abemaciclib. Complex spheroids include a stromal component modeled by human endothelial cells (HUVEC) and fibroblasts modeled by human mesenchymal stem cells (MSCs). The concentration ranges selected for each drug and investigational agent were based upon clinically achievable concentrations if the clinical Cmax of the agent was known.
Compounds. The drugs and investigational agents: ipatasertib (NSC767898), abemaciclib(NSC768073), selumetinib (NSC741078), trametinib (758246), adavosertib (NSC754352), everolimus (NSC733504), sapanisertib (NSC764658), vemurafenib (NSC761431), venetoclax (NSC766270), copanlisib (NSC809693), apelisib (NSC765974), palbociblib (NSC758247), vemurafenib (NSC761431), dabrafenib (NSC764134), ravoxertinib (NSC781343), BMS-387032 (NSC767048), sotorasib (NSC818433), talazoparib (NSC767125) and afursertib (NSC778305), were obtained from the National Cancer Institute (NCI) Developmental Therapeutics Program Chemical Repository. The FDA-approved anticancer drug set is available from the NCI Developmental Therapeutics Program. […] The stock solutions were prepared in dimethyl sulfoxide (DMSO, Sigma-Aldrich, St. Louis, MO, cat. D2650) at 800-fold the tested concentration and stored at -70 degrees C prior to their use. All drugs and investigational agents were tested over a range starting from a high concentration at or near the clinical Cmax and decreasing in half-log increments. If the clinical Cmax for an agent had not been determined, the highest concentration tested was 10 microM.
NCI60 Cell Culture. NCI60 cell lines were obtained from the NCI Developmental Therapeutics Program Tumor Repository. […] The optimal seeding densities for each of the cell lines at each time point assessed were determined prior to performing the concentration response studies. […]

The source holds more than one record for some entries. The list is limited to them. There may be further records. Values given together repeat one measurement (runs, samples, wells, individuals or studies).
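Also: spheroids exposed to compounds for 7 days.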

Usually viability, T/C stands for the ratio of treated to control. On to `CC(C)NCC(C(=O)N1CCN(c2ncnc3c2C(C)CC3O)CC1)c1ccc(Cl)cc1` (stereo not drawn), for which the viability, T/C (compound alone 0.316 µM, stronger effect = lower value) is 55.9, 67.2, 51.8, 42, 57.6, 57.2, 62.4, 41.9, 62.5, 46.9, 52.5, 51.7, 52%. As a reminder, the IC50 is the midpoint of a concentration-inhibition curve. As for `Cn1cnc2c(F)c(Nc3ccc(Br)cc3Cl)c(C(=O)NOCCO)cc21`, the IC50 is 363 nM and < 9.49 nM.

Regarding `Cn1nccc1Nc1nccc(-c2ccn(C(CO)c3ccc(Cl)c(F)c3)c(=O)c2)n1` (stereo not drawn), the half-inhibitory concentration (IC50) was < 31.6 nM and 410 nM.
